Measurements from paper PMC4336329 (PLoS ONE, 2015).
Screen size: about 310,000 compounds; about 2,200 (0.71%) showed an effect of 50% or more. Effects have a minus sign here. The list shows a part of the results.

These compounds were tested against human ether-à-go-go-related gene (hERG) potassium channel (human, UniProt Q12809) (assay: primary screen, population patch clamp on CHO cells stably expressing hERG).
Sequence of human ether-à-go-go-related gene (hERG) potassium channel (Q12809 whole entry, looked up): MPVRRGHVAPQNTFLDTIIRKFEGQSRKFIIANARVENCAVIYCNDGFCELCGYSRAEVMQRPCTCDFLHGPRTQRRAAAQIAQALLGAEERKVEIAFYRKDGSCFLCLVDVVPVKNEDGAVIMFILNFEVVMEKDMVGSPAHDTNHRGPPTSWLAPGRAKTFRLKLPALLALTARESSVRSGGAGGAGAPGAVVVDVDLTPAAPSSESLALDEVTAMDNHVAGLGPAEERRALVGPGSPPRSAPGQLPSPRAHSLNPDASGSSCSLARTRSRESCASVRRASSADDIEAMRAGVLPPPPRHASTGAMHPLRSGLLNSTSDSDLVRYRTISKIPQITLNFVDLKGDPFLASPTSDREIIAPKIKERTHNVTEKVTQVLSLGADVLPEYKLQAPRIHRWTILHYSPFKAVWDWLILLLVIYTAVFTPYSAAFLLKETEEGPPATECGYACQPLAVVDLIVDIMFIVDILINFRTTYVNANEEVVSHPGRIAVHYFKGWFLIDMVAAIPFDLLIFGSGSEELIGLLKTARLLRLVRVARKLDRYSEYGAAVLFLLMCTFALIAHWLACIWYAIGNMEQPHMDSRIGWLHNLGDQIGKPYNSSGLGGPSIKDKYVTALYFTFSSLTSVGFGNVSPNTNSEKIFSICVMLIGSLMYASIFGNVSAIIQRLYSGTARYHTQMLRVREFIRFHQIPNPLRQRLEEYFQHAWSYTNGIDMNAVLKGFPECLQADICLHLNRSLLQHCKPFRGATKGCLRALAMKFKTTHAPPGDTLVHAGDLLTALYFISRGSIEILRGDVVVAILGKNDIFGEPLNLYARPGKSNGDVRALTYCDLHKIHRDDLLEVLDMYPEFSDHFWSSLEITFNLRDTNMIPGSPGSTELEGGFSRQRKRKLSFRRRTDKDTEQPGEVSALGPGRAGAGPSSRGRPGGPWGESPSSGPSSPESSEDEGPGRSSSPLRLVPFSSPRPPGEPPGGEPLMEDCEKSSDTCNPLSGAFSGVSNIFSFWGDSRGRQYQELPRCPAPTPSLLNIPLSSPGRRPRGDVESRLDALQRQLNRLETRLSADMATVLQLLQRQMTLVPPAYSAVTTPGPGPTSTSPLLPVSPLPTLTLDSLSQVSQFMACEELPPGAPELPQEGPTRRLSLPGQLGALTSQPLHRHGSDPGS

| SMILES | hERG current change (%, negative = inhibition) at 1uM |
| --- | --- |
| Cc1cc(=O)n2[nH]c(SCc3c(F)cccc3Cl)nc2n1 | 6.17% |
| O=C(c1ccc(C(F)(F)F)cc1)N1CCN(c2ccc(N3CCOCC3)nn2)CC1 | -37.5% |
| COc1ccc(/C=C/C(=O)NCCc2nc3ccccc3[nH]2)cc1 | 20% |
| Clc1ccc(C2=CSC3=Nc4cccc5cccc(c45)N23)cc1 | 8.39% |
| COC(=O)/C=C/c1ccc2c(c1)OCO2 | 14.9% |
| CC[C@@H](CO)NC(=O)[C@@H]1C=C2c3cccc4c3c(cn4C)C[C@H]2N(C)C1.O=C(O)/C=C\C(=O)O | 13.7% |
| CCCn1c(N)c(N(CCOC)C(=O)Cc2ccc(S(=O)(=O)N3CCOCC3)s2)c(=O)[nH]c1=O | 21.1% |
| O=C(NNc1c2ccccc2nc2ccccc12)c1ccc(O)cc1 | 1.1% |
| COCCn1c(C)cc(C(=O)COC(=O)c2ccc(NC(=O)CC#N)cc2)c1C | 10.1% |
| C/C(=N\N=c1/scc(C)n1Cc1ccco1)c1cccc([N+](=O)[O-])c1 | 9.24% |
| COc1ccccc1Nc1nc(N)nc(CN2CCOCC2)n1 | 14.7% |
| c1ccc2c(c1)Oc1ccccc1S2 | 9.28% |
| O=C(CCS(=O)(=O)c1ccccc1Cl)Nc1ccc(S(=O)(=O)Nc2ncccn2)cc1 | 10.9% |
| CCOc1cc(N2CCOCC2)c(OCC)cc1NC(=O)C1CCCC1 | 16.6% |
| O=C(COc1ccccc1Cl)NCc1ccccc1 | 5.11% |
| Cc1ccc(C(=O)N2CCCC(Nc3ccc(F)c(F)c3)C2)cn1 (centres unmarked) | -18.2% |
| O=C(CCCCCN1C(=O)c2ccccc2C1=O)Nc1ccc(S(=O)(=O)N2CCCCC2)cc1 | -15.1% |
| COc1ccc(Nc2oc(-c3ccc(OC)cc3)nc2C#N)cc1 | 15.3% |
| Cc1oc2c(cc(NS(=O)(=O)c3ccc(F)cc3)c3ccccc32)c1C(=O)O | 9.85% |

| SMILES | hERG current change (%, negative = inhibition) at 1uM |
| --- | --- |
| COc1ccc(/C=N/NC(=O)CNC(=O)/C=C/c2ccccc2OC)cc1 | 11.2% |
| C=CCN1C(=O)/C(=C\c2cccc(OC(=O)c3ccco3)c2)SC1=S | 3.23% |
| O=C(NC1CCCC1)C1CCCN1C(=O)Oc1ccccc1 (centres unmarked) | 15.1% |
| O=C1C=C(c2ccc(F)cc2OCc2ccccc2)C[C@@H](c2ccc(Cl)cc2)C1 | 0.618% |
| COCc1ccc(C(=O)N2CCCC(N(C)CCc3ccc(OC)c(OC)c3)C2)s1 (centres unmarked) | -23.9% |
| COc1ccc(OCC(=O)Nc2ccc(C)cc2)cc1 | 13.8% |
| COc1cccc(C(=O)Nc2nnc(SCC(=O)NC3CCCC3)s2)c1 | 15.4% |
| CC(C)N(Cc1ccccc1)S(=O)(=O)c1cccs1 | 6.18% |
| CC1=C(C(=O)OCc2ccccc2)C(c2cccc([N+](=O)[O-])c2)NC(=O)N1C (centres unmarked) | 6.25% |
| CCOC(=O)CSc1nnc(C)c(C)n1 | -9.33% |
| CCc1ccc(-c2cc(C)no2)cc1S(=O)(=O)N1CCN(C(=O)c2ccco2)CC1 | -4.73% |
| COCCN(Cc1cc2cccc(C)c2[nH]c1=O)C(=O)c1ccccc1 | 13.8% |
| CCOc1ccc(C2C(C(=O)C3CC3)N3C=C(C#N)C=CC3C2(C#N)C#N)cc1 (centres unmarked) | 8.43% |
| O=C(NCCCN1CCCC1=O)c1csc2ccccc12 | -13.5% |
| COC(=O)CSc1nnc(-c2sc3ccccc3c2Cl)o1 | 4.96% |
| O=C(COc1ccccc1)N1CCN(C2CC3CCC2C3)CC1 (centres unmarked) | 9.89% |
| CCCn1ncc(CN2CCN(CCc3ccccc3)C(CCO)C2)c1C (centres unmarked) | -7.62% |
| Cc1cc(C(F)(F)F)n2ncc(C(=O)O)c2n1 | 4.66% |
| COc1ccc(S(=O)(=O)Nc2nnc(Cc3ccc(OC)c(OC)c3)s2)cc1 | 15.4% |

| SMILES | hERG current change (%, negative = inhibition) at 1uM |
| --- | --- |
| COc1cc(C2CC(=O)NC3=C2C(=O)CC(C)(C)C3)cc(OC)c1O (centres unmarked) | 13.7% |
| Cc1cc(C(=O)COC(=O)c2ccc3c(c2)OCO3)c(C)n1CC1CCCO1 (centres unmarked) | -9.99% |
| O=C(N1CCCCC1)C12CC3CC(C1)CC(C(=O)N1CCCCC1)(C3)C2 | 1.5% |
| CC(=O)c1c(C)[nH]c(C(=O)OCc2ccc(Br)cc2)c1C | -1.08% |
| O=C(Nc1ccncc1)c1cc(S(=O)(=O)N2CCOCC2)ccc1Cl | -17.4% |
| Cc1ccccc1C(=O)NNC(=O)Nc1ccccc1 | 6.51% |
| COc1ccc(CNC(=O)c2ccc(CS(=O)(=O)c3ccc(Br)cc3)o2)cc1 | -2.93% |
| CN(C)S(=O)(=O)c1ccc(C(=O)Nc2cccc(S(=O)(=O)NC3=NCCC3)c2)cc1 | 9% |
| COc1cccc(-c2cccc(NC(=O)C3CCN(Cc4cnn(C)c4)CC3)c2)c1 | 19.9% |
| CCn1ccnc1CN(C)Cc1cn(-c2ccc(C)cc2)nc1-c1ccc(F)cc1 | 3.83% |
| C=C(C)CSc1nc2sc3c(c2c(=O)n1-c1ccccc1)CCN(C)C3 | 14.5% |
| CCc1ccc(Nc2n[n+](-c3ccccc3)c(-c3c(Cl)cccc3Cl)s2)cc1.[Cl-] | -7.83% |
| CC1COc2c(N3CCN(C)CC3)c(F)cc3c(=O)c(C(=O)O)cn1c23 (centres unmarked) | 15.6% |
| CC1=N/C(=C\c2ccc([N+](=O)[O-])cc2)C(=O)N1c1ccc(Br)c(C)c1 | 10.8% |
| Cc1ccc(-c2nn(-c3ccccc3)cc2C(=O)NCCCN2CCCC2=O)cc1 | -3% |
| CC/C(CC(=O)C(F)(F)F)=N\NC(=O)/C(C#N)=C/N(C)C | 16.5% |
| c1cc(-c2nnc3n2CCCCC3)ccn1 | 7.04% |
| CC(Sc1nnc(-c2ccco2)n1C)C(=O)NC1CCCC1 (centres unmarked) | 15% |
